We go through 22 molecules from article PMC12136788.

The chains are these.
T1: UNK ZnF1-3 (human, UniProt Q9C0B0 31-174)
T1 sequence: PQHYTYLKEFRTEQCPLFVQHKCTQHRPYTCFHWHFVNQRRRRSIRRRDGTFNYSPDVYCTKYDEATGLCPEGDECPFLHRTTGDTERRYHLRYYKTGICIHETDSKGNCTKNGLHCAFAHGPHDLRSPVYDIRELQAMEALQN

B1: chr1:163112212:163112213:-_ENSG00000143248_ENST00000313961|hu_hu|hu_hu_hu_mus_False|8_98 (ssRNA)
RNA: GGGAGUUCUACAGUCCGACGAUCUUUUAUUAUCAGUAAGCAUGAGUUACAUACUAGGCAAAGUAUUGGAUACAAUAAUCAGGAAACAAACACUAUUGGUCCAGAAUUUAAAACUUUAUGAGCGAAGGCUUACAAAUGGACUUACAACAGAGGAUUGAGCAUCA
B2: chr4:57314706:57314707:+_ENSG00000128050_ENST00000264221|hu_mus|hu_hu_hu_mus_True|78_78 (ssRNA)
RNA: GGGAGUUCUACAGUCCGACGAUCCAGAAUUUCAAAAAUAGCUUGUGUGGCAUGACUCAUGAUAUCCACUUCAGUCUGCCCUAUAACAAGGCCAGCAAAACAGAAUUUUGCAGCAAUGAGUUGCUCCUCAGACCACUGUGGAUCCAACAGAGGAUUGAGCAUCA
B3: chr16:23109248:23109249:+_ENSMUSG00000022884_ENSMUST00000115341|mus_hu|FALSE|FALSE (ssRNA)
RNA: GGGAGUUCUACAGUCCGACGAUCAAGUGCCAGAAUUACCUUUUGGAUCUGUUGAGCCAGUUCUCUGGUGGGGGCCAAUACUAGUGCUUGGGUCUCCUUGAACUCAAUCUCCAACUGUUGCAGGAUGGAAAUAGCAAAUGUGGCCAACAGAGGAUUGAGCAUCA
B4: chr4:17845017:17845018:+_ENSG00000109805_ENST00000514176|hu_mus|hu_hu_hu_mus_False|78_108 (ssRNA)
RNA: GGGAGUUCUACAGUCCGACGAUCGCUUCCUAACUUAGUAUCUUCAUUAAGGAACUCGCAAGGUUAAAGUUUACUUUUCUGUAGCGCAGCUGUUUUGGCUCGUCUGGGUAAUCUCAUCUUCAUUUCUGAUGGUGGUUCAUGAUCCAACAGAGGAUUGAGCAUCA
B5: chr7:40134317:40134318:+_ENSG00000065883_ENST00000340829|hu_hu|motif|central (ssRNA)
RNA: GGGAGUUCUACAGUCCGACGAUCGGAAGGGUCACUGCUGUUUGCCAGGACUGCAAUAGGACCAUGGCUAUAUUCAAAUCGGUGGUCCUUGUCUCCACUAAACAACAUGGGACCAGCAUUGAGGUAAAUGUCUCCAUAUCCAGCCAACAGAGGAUUGAGCAUCA
B6: chr5:128440902:128440903:+_ENSG00000066583_ENST00000173527|hu_mus|hu_hu_hu_mus_True|18_48 (ssRNA)
RNA: GGGAGUUCUACAGUCCGACGAUCUUGAACGGUGCUGCCAAGUCCUUUGGGGUAUUGUUCCGUUAUGAUAACUGGAAUCCCUAAGAUCCGGGCCCCUUGCAACAGUCUCUGUCCCACGCUAAUAAUAUCCCCAAAGUAUUUGAUCAACAGAGGAUUGAGCAUCA
B7: chr16:94664741:94664742:+_ENSMUSG00000040785_ENSMUST00000117648|mus_hu|mus_mus_mus_hu_False|28_58 (ssRNA)
RNA: GGGAGUUCUACAGUCCGACGAUCUGGUACUGAUCUUGGUAGCUGAUAUUCAGGAGAAAGGCUGGCCAAGGGUGUAUAAAUGCUAGUGUACUGGGGCAAACCUGGUACCAUGUUAAUGUAUGCUGGCGGUGUCUGGGUGAUAUCCAACAGAGGAUUGAGCAUCA
B8: chrX:71549762:71549763:+_ENSMUSG00000019087_ENSMUST00000019231|mus_mus|mus_mus_mus_hu_False|28_28 (ssRNA)
RNA: GGGAGUUCUACAGUCCGACGAUCAAACCCGUGUACUUCUUAUUGUUAGCACAACAUCACCAGAAAACGAUAACGACAGCCAAGCAGGACAGACAGUUAAGUAGUACUUCCACACCUCCAAACUCAGGGAGCCCUAUAACCUUACAACAGAGGAUUGAGCAUCA
B9: 30804562_30806349_983_CDS_ENSG00000108671_ENST00000457654|human|control|control (ssRNA)
RNA: GGGAGUUCUACAGUCCGACGAUCUAGUAAGUUAUCAUACAACUUGGCCAAGUGUGUGCUGAUGAUUGGGUCAUCCCGGAGCUCUGCCCGGUAAUCUGUCAGAGCCUUUUCAAAAUCUGCCAGUGAUCUGUUCUUGCUAGCCUGCAACAGAGGAUUGAGCAUCA
B10: 35104582_35104702_250_CDS_ENSMUSG00000029104_ENSMUST00000080036|mouse|control|control (ssRNA)
RNA: GGGAGUUCUACAGUCCGACGAUCCUGCCCCUGAGGCGGCGGCUGAGGGGGUUGAGGCGGAGGCGGCGGCGGCGGUGGCGGCGGCGCCUGCGGCGGUGGCUGCUGCUGCUGUUGCUGCUGAAACGACUUGAGCGACUCGAAAGCCAACAGAGGAUUGAGCAUCA
B11: chr14:89307221:89307222:+_ENSG00000165533_ENST00000346301|hu_mus|hu_hu_hu_mus_False|68_78 (ssRNA)
RNA: GGGAGUUCUACAGUCCGACGAUCUCCUGUUUGGUUAGUGCCAGGGAGCUUCAAAGACGUUCCAGGGCGUGGAACUUGAGCAAUAGCAUUUUCAUCCAGGAUCAUUUCAGCAAUUCCUUCCUGGUCCACAUCAAUUUCAUCUAUCAACAGAGGAUUGAGCAUCA
B12: chr17:24776569:24776570:-_ENSMUSG00000002504_ENSMUST00000002572|mus_mus|motif|central (ssRNA)
RNA: GGGAGUUCUACAGUCCGACGAUCAGAGAGCCUAGGCUCUGCAUUCCAGAACCCAGCAUGUGGGAGGUAGCACAGGGGUAGCGGGGCAGAGAAGAGAGGCCUGGCCUAGGGACCAUCCCAUGUGAGGGAUGGGGCAGAGGGACACAACAGAGGAUUGAGCAUCA
B13: chr2:48034705:48034706:-_ENSG00000138081_ENST00000403359|hu_mus|FALSE|FALSE (ssRNA)
RNA: GGGAGUUCUACAGUCCGACGAUCCAUAGAAAGAAGGUACAUACUGGGACAUGAGUACAGUUACAGCAAGUCUAGGUGUGCUAACAAAACAGGGCACAUUCAAGUACAAUAAGAUUUGCUUGAAAUUAAAAACGAACUACAUGACAACAGAGGAUUGAGCAUCA
B14: 65860078_65860198_1207_3pUTR_ENSMUSG00000044647_ENSMUST00000122912|mouse|control|control (ssRNA)
RNA: GGGAGUUCUACAGUCCGACGAUCGUGGCAGCCAUUCAGCGUGGGGGUUUGUUGCUCUCGGUUCUUCUCCAGUUCAAGUUUCAUUAUUGUGUGCAAAAAAUGAGUCCGGACACGGAUAGGAUUGAAUUCAAUUCUACCUGCUGUCAACAGAGGAUUGAGCAUCA
B15: chr5:24319680:24319681:-_ENSMUSG00000028945_ENSMUST00000030787|perfect_dup|motif|central (ssRNA)
RNA: GGGAGUUCUACAGUCCGACGAUCAAGCUGAAGAUGAUACUCUUGACCAUUUACCGUGAUCAACUUGGUGAACGUGUUCUCGGUGGUUGGAUCGUAGGAAUCAACAAAUUGGCCUUCAACAAACUGAAUUGUCAAUGAGGACUUCAACAGAGGAUUGAGCAUCA
B16: chr6:13037117:13037118:+_ENSMUSG00000029571_ENSMUST00000031556|mus_mus|FALSE|FALSE (ssRNA)
RNA: GGGAGUUCUACAGUCCGACGAUCGCGUGUACUGUACUGUUUGUGAAUGGGCAUCGACACAUUUGUAUGUGUGUGUACACUAUAUAUGUGGUAUUGUACUGUCCGUGAACGGUCAUCCGAGAAGAGUGCCAGUUCUCUCCGCCUCAACAGAGGAUUGAGCAUCA
B17: 49638243_49703634_88_5pUTR_ENSMUSG00000040260_ENSMUST00000057610|mouse|control|control (ssRNA)
RNA: GGGAGUUCUACAGUCCGACGAUCUCAUUGGCACAAUCCUGAGGCCCGCAUGGCACGGUGAGGCUGCUGCUGUCCCGGCUUCCCGCAGGCACCGCGCUCCGCUUGCUCAGCUCAGUCCUUGGCUGCUCAGGACUCCGGAGAAAGCAACAGAGGAUUGAGCAUCA
B18: chr3:122261000:122261001:-_ENSMUSG00000039735_ENSMUST00000162409|mus_hu|FALSE|FALSE (ssRNA)
RNA: GGGAGUUCUACAGUCCGACGAUCGUAAUCUUCAAAUGGAAAGUCUCCUGGAGGUUCAAAACCAGAUUUGAAGGAGUCUACCACCAUUUGAGAGUCUCUUCUUUCAUCAACUGAUUUUGCUGCAAGAAUCAUUCCUUCCAAACACAACAGAGGAUUGAGCAUCA
B19: chr5:72798899:72798900:+_ENSG00000145741_ENST00000335895|hu_hu|FALSE|FALSE (ssRNA)
RNA: GGGAGUUCUACAGUCCGACGAUCUGGUGCUUUUCCAUCCACAGAUUGUUUGGGCAGAGCUUCGGCCAGUCUCCUUAAACUAGUCAGACUAUCCGCACCAAGCUGGUUUAAGAUGCUGGGUAGCAUUUCUGUCAGCUGCUUUGUCAACAGAGGAUUGAGCAUCA
B20: chr13:55348081:55348082:+_ENSMUSG00000021488_ENSMUST00000099490|mus_mus|FALSE|FALSE (ssRNA)
RNA: GGGAGUUCUACAGUCCGACGAUCCUCUCCUUUCCCACUUUUGGAUAUAUUGGCCAAAGGAGAGCCAUUGGUAUCAGAAGAACAGCAUUUCAAACUGAGGUCCUCACUUGUAGCUGAGGUUUCUGCAACAGCUGGGCUUUCUUUCAACAGAGGAUUGAGCAUCA
B21: 77285899_77286019_1232_3pUTR_ENSMUSG00000036377_ENSMUST00000163347|mouse|control|control (ssRNA)
RNA: GGGAGUUCUACAGUCCGACGAUCCGCGUUGUCUUGCUUCCUCCUCCUGCCUCUCGGCCUCGCGCUGCCUCAGUUUCUCCGCCUGCCUCUCGGCCUCGCAUUGUCUCGCUUCCUCCUCUUGCCUCUCGGCCUCGCGCUGCUUCUCAACAGAGGAUUGAGCAUCA
B22: chr2:130329849:130329850:+_ENSMUSG00000027303_ENSMUST00000028769|mus_mus|FALSE|FALSE (ssRNA)
RNA: GGGAGUUCUACAGUCCGACGAUCGUGUGAAGAAUUAACAGUAGUCACAUAGGUGGGCUCCAGAGUCAGGUUUGGGCUGAAUGUUGGUGCCACAGAAAGAGAAAUUACUGAAGAGGUUGAAUUUGAGGUUUUAUUCUCUUCCUUCAACAGAGGAUUGAGCAUCA

Some of the results follow.

The target in the assay is T1, UNK ZnF1-3. The experiment in a line: nsRBNS (natural sequence RNA bind-n-seq); RBNS binding buffer (assumed for nsRBNS): 25 mM Tris pH 7.5, 150 mM KCl, 3 mM MgCl2, 0.01% Triton X-100, 500 ug/ml BSA, 20 U/ml SUPERase-In, 4 C; UNK is unkempt and MSI1 is Musashi-1; names of the RNAs are library labels; protein concentration not given here; high values mean tight binding.
The molecule B1 came in with a binding signal of 0.988 enrichment R.

B2 registered a binding signal of 1.03 enrichment R.

Consider B3, for which the binding signal is 1.13 enrichment R.

Molecule B4 showed a binding signal of 0.585 enrichment R.

Turning to B5, the binding signal turned out to be 1.39 enrichment R.

On to B6, for which the binding signal amounted to 0.768 enrichment R.

B7 displayed a binding signal of 1.02 enrichment R.

On to B8, for which the binding signal worked out at 1.58 enrichment R.

B9 showed a binding signal of 0.718 enrichment R.

In the case of B10, the binding signal was 1.01 enrichment R.

B11 yielded a binding signal of 0.862 enrichment R.

B12 had a binding signal of 1.07 enrichment R.

In the case of B13, the binding signal was determined as 1.25 enrichment R.

B14: the binding signal was 0.818 enrichment R.

Molecule B15 registered a binding signal of 0.867 enrichment R.

Take B16: the binding signal turned out to be 0.651 enrichment R.

In turn, B17 returned a binding signal of 0.798 enrichment R.

The molecule B18 returned a binding signal of 0.857 enrichment R.

The molecule B19 gave a binding signal of 0.537 enrichment R.

In the case of B20, the binding signal turned out to be 1.01 enrichment R.

Consider B21, for which the binding signal was found to be 0.495 enrichment R.

Regarding B22, the binding signal is 1.22 enrichment R.
